PubChem BioAssay AID504466 (National Center for Advancing Translational Sciences (NCATS), 2011)
Hit rate of the full screen: of about 330,000 compounds, about 4,200 (1.3%) were called active. The shares of active, inactive and inconclusive entries below differ from those in the screen. The call rests on the fitted dose curve; in most records, active means well fitted activation curve with a large enough effect; inconclusive means small, poorly fitted or top-dose-only effect; inactive means no such curve, though single readings can be large or run the other way. Where the call is inconclusive, the potency comes from a doubtful curve fit.

Test: qHTS screen for small molecules that induce genotoxicity in human embryonic kidney (HEK293T) cells expressing luciferase-tagged ELG1; further: nearly all actives have a fitted effect of over 60% in size; on activity change, positive = activation: % of control where 0% means no effect
Settings: HEK293T ELG1-luciferase reporter, luminescence, 16 h; series mostly up to 46 µM; activity change, positive = activation: at the top concentration
How it was run: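 Quantitative HTS format in 1536-well plates. HEK293T ELG1-luciferase reporter cells receive test compound and are incubated 16 hr at 37 °C, 5% CO2; ONE-Glo added, 30 min room temperature, then luminescence read.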
Potency means the concentration at half of the fitted maximal effect; tags describe the fitted curve by direction and shape.

SMILES | Potency | activity change, positive = activation
O=C(Nc1ccc(Cl)cc1Cl)c1ccc2ncsc2c1 | inconclusive: 11.6 µM [activator, partial curve, poor fit] | 
O=C1CCCc2nc(N3CCCCC3)sc21 | active: 20.6 µM | 
Clc1ccccc1CSc1ncccn1 | inconclusive: 16.4 µM [activator, partial curve, poor fit] | 
CCc1ccc2oc(C(=O)NCc3ccncc3)c(C)c2c1 | inconclusive: 32.6 µM [activator, partial curve, poor fit] | 
O=C(Cc1cccs1)Nc1ccccc1C(=O)O | inconclusive: 18.4 µM [activator, single point] | 
COc1ccc(-c2csc(N(CCCN(C)C)C(=O)c3cc(OC)c(OC)c(OC)c3)n2)cc1 |  | inactive: -6.54%
Cc1occc1-c1nc(-c2ccccn2)no1 | inconclusive: 2.06 µM [activator, full curve] | 
CCCCC(=O)NC(=S)Nc1cccc(NC(=O)CC)c1 |  | inactive: -1.15%
CSC(=NC#N)N1CCN(c2cccc(Cl)c2)CC1 |  | inactive: -2.2%
O=C(NCC(=O)N1CCCCC1)c1sc2ccccc2c1Cl | inconclusive: 2.06 µM [activator, full curve] | 
Cn1c(=O)[nH]c(=O)c2c1nc(NCc1ccco1)n2CCCc1ccccc1 | inconclusive: 23.1 µM [activator, single point] | 
COCC(=O)N1CCC(Oc2ccc(C(=O)NC(C)c3nccs3)cc2)CC1 (configuration not stated) |  | inactive: 0.533%
COc1cccc(NC(=O)c2cnc(SCC(=O)NCc3ccc4c(c3)OCO4)n(C)c2=O)c1 | inconclusive: 11.6 µM [activator, partial curve] | 
CCN1CCCC1CNC(=O)c1cc2c(-c3ccc(Cl)cc3)nn(C)c2s1 (configuration not stated) | inconclusive: 14.6 µM [activator, partial curve, poor fit] | 
Cc1nc(SCC(=O)N2CCOCC2)c2c3c(sc2n1)CCC3 |  | inactive: -1.78%
COc1ccc(C(=O)Nn2cc3c(c2-c2ccccc2)c(=O)n(C)c(=O)n3C)cc1 | inconclusive: 12.6 µM [activator, partial curve, poor fit] | 
COc1ccccc1C(=O)Nc1nsc(-c2ccccc2)n1 | inconclusive: 8.2 µM [activator, partial curve] | 
COc1ccc(C(=O)CNc2ccccc2CO)cc1 | inconclusive: 20.6 µM [activator, partial curve] | 
Cc1ccc2nc(SCn3nnc4ccccc4c3=O)[nH]c2c1 | inconclusive: 2.31 µM [activator, full curve] | 
CSc1ccc(/C=C/C(=O)NC23CC4CC(CC(C4)C2)C3)cc1 | inconclusive: 20.6 µM [activator, partial curve, poor fit] | 
CNC[C@@H]1Oc2ccc(NC(=O)Nc3cccc4ccccc34)cc2C(=O)N([C@@H](C)CO)C[C@@H]1C |  | inactive: 2.24%
Cc1[nH]n(C(N)=S)c(=O)c1N=Nc1cccc([N+](=O)[O-])c1C | inconclusive: 16.4 µM [activator, partial curve] | 
Cc1nc(NC(=O)C2CCCCC2)sc1C | inconclusive: 13 µM [activator, partial curve, poor fit] | 
CCN(C(=O)Cn1c(=O)n(Cc2ccccc2)c(=O)c2ccccc21)c1cccc(C)c1 |  | inactive: -5.06%

SMILES | Potency | activity change, positive = activation
Cc1ccc(N=Nc2ccc(O)c3ncccc23)cc1C |  | inactive: 9.81%
Cc1c(C)n(C)c2ccc(C(=O)NCCCN3CCCC3)cc12 |  | inactive: 6.49%
CC(C)COC(=S)Nc1ccccc1 | inconclusive: 20.6 µM [activator, single point] | 
CC(C)(C)NCC1(CO)SC(N)=NC1=O (configuration not stated) |  | inactive: -7.8%
Cc1cc(C)c2nc(NC(=O)c3ccco3)sc2c1 | active: 0.651 µM | 
Cc1cc(C)n(-c2nc(-c3ccc(Cl)cc3)cs2)n1 | inconclusive: 8.2 µM [activator, partial curve] | 
CCOC(=O)CNC(=O)c1c2c(nc3ccccc13)CCCC2 |  | inactive: -2.8%
CC(=O)c1ccc(NC(=O)C(C)OC(=O)c2ccc3c(c2)nc(C)n3-c2ccccc2)cc1 (configuration not stated) | inconclusive: 25.9 µM [activator, partial curve, poor fit] | 
O=C(/C=C/c1ccco1)Nc1ccc(C(=O)N2CCOCC2)cc1 |  | inactive: 2.75%
CCCCN(C)C(=O)c1cc2cc3ccc(OC)cc3nc2o1 | inconclusive: 8.2 µM [activator, partial curve, poor fit] | 
CNc1nc(SC)nc(N(C)C#N)n1 |  | inactive: 2.95%
COc1cc(C(=O)N/N=C(\c2ccccc2)c2ccccn2)cc(OC)c1OC | inconclusive: 3.26 µM [activator, partial curve, poor fit] | 
Cc1ccc(N2CCN(/N=C/c3cccs3)CC2)cc1 |  | inactive: 13%
COc1cccc2cc(C(=O)Nc3ccccc3C)/c(=N/O)oc12 | inconclusive: 6.51 µM [activator, partial curve, poor fit] | 
CCOC(=O)COc1ccccc1/C=C\[N+](=O)[O-] | inconclusive: 6.51 µM [activator, partial curve, poor fit] | 
COc1cc(/C=C2/SC(=S)N(Cc3ccccc3)C2=O)ccc1O | inconclusive: 20.6 µM [activator, partial curve, poor fit] | 
COCC(C)n1c(C)cc(C(=O)COC(=O)c2ccc3ncsc3c2)c1C (configuration not stated) | inconclusive: 23.1 µM [activator, partial curve, poor fit] | 
Oc1ccc(/C=N/Nc2cccc3cccnc23)c(O)c1 | active: 6.51 µM | 
COc1ccc(N2C(=O)CCC(C(=O)N3CCCCCC3)C2c2ccc(OC)c(OC)c2)cc1 (configuration not stated) | inconclusive: 23.1 µM [activator, partial curve, poor fit] | 
COc1cccc(OCc2cc(C(=O)N3CCN(C(=O)c4ccco4)CC3)no2)c1 | inconclusive: 13 µM [activator, single point] | 
COc1ccccc1C(=O)Nc1ccc(Br)cc1C |  | inactive: 10.3%
COc1cc(C)ccc1OCc1cc(C(=O)N2CCN(C3CCCCC3)CC2)no1 | inconclusive: 16.4 µM [activator, partial curve, poor fit] | 
O=C(NCc1ccccc1F)c1ccc2c(c1)OCO2 | inconclusive: 25.9 µM [activator, partial curve, poor fit] | 
